{"source": "paper PMC4336329", "about": "(PLoS ONE, 2015)", "note": "The whole screen tested about 310,000 compounds, of which about 2,200 (0.71%) showed an effect of 50% or more. Effects have a minus sign here. The list shows a part of the results.", "data": [{"molecular_target": "human ether-à-go-go-related gene (hERG) potassium channel (human, UniProt Q12809)", "sequence (Q12809 whole entry, looked up)": "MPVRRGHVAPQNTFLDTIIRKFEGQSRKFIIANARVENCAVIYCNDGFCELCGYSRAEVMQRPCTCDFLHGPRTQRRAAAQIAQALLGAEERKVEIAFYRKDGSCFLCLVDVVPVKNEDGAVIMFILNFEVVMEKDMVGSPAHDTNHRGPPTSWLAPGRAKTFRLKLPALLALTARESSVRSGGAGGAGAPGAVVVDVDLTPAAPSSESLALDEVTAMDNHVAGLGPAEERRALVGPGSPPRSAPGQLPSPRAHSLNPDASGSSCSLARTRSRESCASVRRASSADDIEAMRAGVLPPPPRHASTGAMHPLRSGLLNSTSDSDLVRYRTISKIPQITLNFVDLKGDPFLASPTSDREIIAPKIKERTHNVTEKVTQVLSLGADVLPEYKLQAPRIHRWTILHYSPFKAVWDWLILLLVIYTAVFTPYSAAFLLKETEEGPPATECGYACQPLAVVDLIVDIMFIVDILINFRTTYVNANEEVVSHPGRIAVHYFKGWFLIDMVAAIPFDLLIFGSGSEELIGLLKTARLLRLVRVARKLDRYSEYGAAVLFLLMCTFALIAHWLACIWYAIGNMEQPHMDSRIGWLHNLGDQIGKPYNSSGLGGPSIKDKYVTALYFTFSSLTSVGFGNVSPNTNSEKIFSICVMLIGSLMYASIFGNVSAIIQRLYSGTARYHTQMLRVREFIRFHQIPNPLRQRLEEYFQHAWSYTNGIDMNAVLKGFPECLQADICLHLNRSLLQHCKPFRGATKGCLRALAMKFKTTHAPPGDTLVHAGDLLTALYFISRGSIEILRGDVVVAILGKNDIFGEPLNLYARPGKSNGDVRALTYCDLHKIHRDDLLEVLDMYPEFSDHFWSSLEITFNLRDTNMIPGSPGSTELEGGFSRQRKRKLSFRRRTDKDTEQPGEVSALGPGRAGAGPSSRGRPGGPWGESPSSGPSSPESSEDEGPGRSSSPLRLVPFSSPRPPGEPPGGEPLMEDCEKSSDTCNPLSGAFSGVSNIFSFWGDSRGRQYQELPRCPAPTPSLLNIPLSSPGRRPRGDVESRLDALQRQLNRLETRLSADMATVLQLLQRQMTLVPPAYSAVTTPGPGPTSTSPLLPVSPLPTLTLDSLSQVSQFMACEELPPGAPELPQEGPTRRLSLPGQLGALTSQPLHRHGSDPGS", "assay": "primary screen, population patch clamp on CHO cells stably expressing hERG", "units": {"hERG current change (%, negative = inhibition) at 1uM": "%"}, "values": [{"smiles": "Cc1ccccc1NC(=O)c1nn(C)c(C(=O)Nc2ccccc2C)c1[N+](=O)[O-]", "hERG current change (%, negative = inhibition) at 1uM": 11.8}, {"smiles": "Cc1nc2sc(C(c3ccccc3)N3CC(C)OC(C)C3)c(O)n2n1", "note": "(stereo not drawn)", "hERG current change (%, negative = inhibition) at 1uM": 10.2}, {"smiles": "CCOc1ccc(S(=O)(=O)N/N=C(\\C)c2ccc(Cl)c(Cl)c2Cl)cc1", "hERG current change (%, negative = inhibition) at 1uM": 12.1}, {"smiles": "Cc1ccc(-c2nc(S(=O)(=O)c3ccccc3)c(SCC(=O)NCC3CCCO3)o2)cc1", "note": "(stereo not drawn)", "hERG current change (%, negative = inhibition) at 1uM": 14.4}, {"smiles": "COc1ccc(/C=N/NC(=O)c2cc(-c3ccccc3)nc3ccccc23)c(OC)c1", "hERG current change (%, negative = inhibition) at 1uM": 10}, {"smiles": "Cc1cc(C)nc(NC2=NCC(=O)N2c2ccccc2)n1", "hERG current change (%, negative = inhibition) at 1uM": 14}, {"smiles": "O=C(CCCN1C(=O)/C(=C/c2ccccc2Cl)SC1=S)NNC(=O)c1ccccc1Cl", "hERG current change (%, negative = inhibition) at 1uM": 22}, {"smiles": "Cc1ccc(CN2CC(C(=O)NNC(=O)Cn3ccc(C(F)(F)F)n3)CC2=O)cc1", "note": "(stereo not drawn)", "hERG current change (%, negative = inhibition) at 1uM": 8.3}, {"smiles": "N#C/C(=C\\c1cc2ccccc2nc1N1CCCCC1)C(N)=O", "hERG current change (%, negative = inhibition) at 1uM": -3.88}, {"smiles": "CCc1onc(C)c1C(=O)Nc1ccc2c(c1)OCO2", "hERG current change (%, negative = inhibition) at 1uM": 17.4}, {"smiles": "Cc1noc(C)c1CSc1nnc(-c2ccccc2)n1Cc1ccco1", "hERG current change (%, negative = inhibition) at 1uM": 6.58}, {"smiles": "COc1ccc(/C=C/C(=O)OCC(=O)NCCC2=CCCCC2)cc1S(=O)(=O)N1CCOCC1", "hERG current change (%, negative = inhibition) at 1uM": 1.38}, {"smiles": "CN(CC(=O)Nc1cccc(F)c1)C(=O)c1ccc(COc2ccccc2)o1", "hERG current change (%, negative = inhibition) at 1uM": 15.7}, {"smiles": "O=C(Nc1cccc2ccccc12)N1N=CCC1c1ccccc1", "note": "(stereo not drawn)", "hERG current change (%, negative = inhibition) at 1uM": 14.8}, {"smiles": "COc1ccc2c(c1)C1CC(C)(NC(=O)C1C(=O)c1ccccc1)O2", "note": "(stereo not drawn)", "hERG current change (%, negative = inhibition) at 1uM": -3.39}, {"smiles": "O=C(c1cn(-c2ccccc2)nc1-c1cccs1)N1CCN(c2ccccc2)CC1", "hERG current change (%, negative = inhibition) at 1uM": 14.6}, {"smiles": "O=[N+]([O-])c1cccnc1Sc1ccc(Br)cc1", "hERG current change (%, negative = inhibition) at 1uM": 12.8}, {"smiles": "Cc1ccc(S(=O)(=O)N2CCC(C(=O)NCCc3ccccn3)CC2)cc1", "hERG current change (%, negative = inhibition) at 1uM": 8.56}, {"smiles": "C#CC(C)(C)NC(=O)c1ccccc1OC", "hERG current change (%, negative = inhibition) at 1uM": 4.89}, {"smiles": "c1cc2c(cc1C1=NNC(=NC3CC3)SC1)OCCO2", "hERG current change (%, negative = inhibition) at 1uM": 13.4}, {"smiles": "S=c1[nH]nc(C2CC2c2ccc(Cl)cc2)n1-c1ccc(Cl)cc1", "note": "(stereo not drawn)", "hERG current change (%, negative = inhibition) at 1uM": 16.8}, {"smiles": "Nn1c(SC/C=C/c2ccccc2)nnc1-c1cccnc1", "hERG current change (%, negative = inhibition) at 1uM": 14.6}, {"smiles": "CCCCOc1ccc(CON(C(C)=O)C(C)=O)cc1Cl", "hERG current change (%, negative = inhibition) at 1uM": 8.78}, {"smiles": "CN(C(=O)COC(=O)c1ccccc1C(=O)N1CCN(c2ccccc2)CC1)c1ccccc1", "hERG current change (%, negative = inhibition) at 1uM": 2.26}]}]}
